Experimental data reported in PubChem BioAssay AID1508624 (National Center for Advancing Translational Sciences (NCATS), 2021).
Screen size: about 48,000 compounds; about 120 (0.25%) were called active. Not shown: some 4% with an inconclusive outcome. The call rests on the fitted dose curve; in most records, active means well fitted activation curve with a large enough effect; inconclusive means small, poorly fitted or top-dose-only effect, or another doubt; inactive means no such curve, though single readings can be large or run the other way. This is one part of the list.

Assay: Primary qHTS for Identification of Small Molecule Activators of Huntingtin-Antisense Promoter Activity; further: nearly all actives have a fitted effect of over 55% in size
Conditions: HEK293 HTT-AS promoter firefly luciferase reporter (activity 0% = vehicle and -100% = no light), 24 h; series mostly up to 57.5 µM; activity change, positive = activation: at the top concentration
Summary of the method: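 HEK293 Fluc reporter, 2,500 cells/well, 24 h pre-culture; cpds up to 57.5 uM final, 24 h 37 degrees C; Dual-Glo, 10 min RT; normalized vehicle = 0%, zero RLU = -100%.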

Activity change, positive = activation, inactive:
Cc1c(C(N)=O)nnn1-c1ccc(Br)cc1 0%
CCN(CC)CCNC(=O)C1CCCN(c2ncnc3onc(C)c23)C1 (stereo unspecified) -10.7%
Cc1ccc(C)c(-c2csc(-c3c(N)c(C(=O)c4ccc5c(c4)OCO5)n4ccccc34)n2)c1 -27.2%
COc1ccc(CCNC(=O)Cn2nc(C)n3c(cc4occc43)c2=O)cc1OC -14.5%
CCOC(=O)c1c(S(=O)(=O)N2CCCC(C(=O)N3CCN(c4ccc(F)cc4)CC3)C2)c(C)n(C)c1C (stereo unspecified) 0%
COc1ccc(CCNC(=O)Cn2ncc3c(C)n(Cc4ccccc4F)c(C)c3c2=O)cc1OC -9.15%
Cc1cccc(NC(=O)Cn2c(=O)oc3cc(S(=O)(=O)NCc4ccccc4)ccc32)c1 -31%
COc1ccc(Br)cc1C1CC(=O)Nc2c1c(C)nn2-c1nc(C)cc(C)n1 (stereo unspecified) -17.3%
Cc1ccc2nc(N(Cc3cccnc3)C(=O)C3CCCCC3)sc2c1 -21.3%
CCn1cc(C(=O)OCC(=O)Nc2cc(Cl)ccc2OC)c(=O)c2ccc(C)nc21 -5.24%
CCc1ccccc1NC(=O)Cn1c(=O)n(Cc2ccccc2)c(=O)c2c(C)c(C(=O)N(C)C)sc21 -12.1%
CCOc1ccc(NC(=O)Cn2c(=O)cc(C)c3c(C)nn(C)c32)cc1 -14.1%
Cc1csc2nc(-c3cccc(NS(C)(=O)=O)c3)cn12 -0.741%
Cc1ccccc1CN1c2ccccc2-c2nc(SCC(=O)c3ccc(Cl)cc3)ncc2S1(=O)=O 20.3%
COCCCNC(=O)CCCN1C(=O)CCn2nc(-c3cccn3C)cc21 6.57%
Cc1ccc(-c2nc(C)c(CCNC(=O)C(=O)Nc3cc(C)ccc3C)s2)cc1 1.37%
Cc1csc2nc(-c3ccc(NS(=O)(=O)c4cccc(F)c4)cc3)cn12 -24.2%
COc1cc(CNCCSc2nnnn2C)ccc1OCc1ccccc1C -0.468%
Cc1ccccc1CNC(=O)c1ccc(NC(=O)N2CCCCc3ccccc32)cc1 -20.2%
Cc1c(CN(C)C(=O)c2cc(-c3ccccc3)nc3ccc(Br)cc23)cnn1C -61.3%
CCCOc1ccc(C2=NC(c3ccncc3)=Nc3ccc(C)cc3N2)cc1 -16.6%
Cc1ccc(-c2n[nH]c3c2C(c2ccccc2Cl)N(c2ccc(C(=O)O)cc2)C3=O)cc1 (stereo unspecified) -33.6%
Cc1oc2ccc(NS(=O)(=O)c3ccc(F)cc3)cc2c1C(=O)O -8.67%
CSc1ncc(Cl)c(C(=O)Nc2c(C(=O)Nc3cccc(C)c3)oc3ccccc23)n1 -6.23%
Cc1ccc(S(=O)(=O)c2c(Nc3ccc(C)c(C)c3)sc(C(=O)c3ccc4c(c3)OCO4)c2N)cc1 -20.6%
Cc1ccccc1-c1noc(-c2ccc(N3CCC(C)CC3)c([N+](=O)[O-])c2)n1 -11.8%
CCc1ccc(CNC(=O)c2cnc(N3CCCCC3)c3ccccc23)cc1 -29.7%
COc1ccc(CCNC(=O)C(=O)Nc2ccc(C)c(C)c2)cc1 20.9%
CC12CC3CC(C)(C1)CC(N)(C3)C2
O=C(Nc1ccc(S(=O)(=O)N2CCOCC2)cc1)c1cc(Cl)ccc1NS(=O)(=O)c1ccc(Cl)s1 -7%
CN1C(C(=O)Nc2ccccn2)=C(O)c2sc(Cl)cc2S1(=O)=O -47.7%
O=C(CN1C(=O)CC(c2ccco2)Sc2ccccc21)Nc1cccc(C(F)(F)F)c1 (stereo unspecified) -40.5%
O=C(CSc1nc2c(c(=O)[nH]1)CCCC2)Nc1ccccc1C(F)(F)F -18.2%
CC(C)c1ccc(S(=O)(=O)c2cn(CC(=O)Nc3ccc(F)cc3)c3ccccc3c2=O)cc1 -6.69%
COc1ccc(Cl)cc1NC(=O)CSc1nnc2[nH]c(=O)cc(C)n12 -0.656%
CCOc1ccc(-c2nc(C(N)=O)c3c(n2)n(-c2ccc4c(c2)OCO4)c(=O)n3CC)cc1 -7.04%
CC1CNc2c(cccc2S(=O)(=O)N[C@@H](CCCN=C(N)N)C(=O)N2CC[C@@H](C)C[C@@H]2C(=O)O)C1 (stereo partly specified) -5.64%
COC(=O)c1cc(S(=O)(=O)N2CCN(c3cc(Cl)ccc3C)CC2)c[nH]1 -19.7%
CC1=C(C(N)=O)C(c2ccccc2F)n2nc(-c3ccc(Cl)cc3)nc2N1 (stereo unspecified) 0.221%
Cc1ccc(CNC(=O)Cn2cc3c(n2)-c2c(oc(C(=O)N4CCOCC4)c2C)CC3)cc1 -22.5%
Cc1cc(C)c2oc(C(=O)Nc3c(C(=O)c4ccccc4)oc4ccccc34)cc(=O)c2c1 6.26%
O=S(=O)(NCC(c1ccco1)N1CCOCC1)c1ccc(F)cc1 (stereo unspecified) -9.49%
COc1ccccc1CNc1ncnc2c1c(-c1ccccc1)cn2-c1ccc(Br)cc1 -13.9%
CCN(CC)c1ccc(NC(=O)Cn2c3ncccc3c(=O)n2-c2ccccc2)c(C)c1 -11.7%
COc1cc2c(=O)c(C(=O)c3ccc(F)cc3)cn(Cc3cccc(F)c3)c2cc1OC -10.1%
Cc1ccc(C(=O)NCCC(C)C)cc1NC(=O)c1nsc2ccccc12 -1.38%
O=C(Nc1c(C(=O)c2ccccc2)oc2ccccc12)c1ccc(F)cc1 -1.45%
O=C(CN1CCN(Cc2ccc(F)cc2Cl)C1=O)NCCc1ccc(Cl)cc1 -5.12%
CC(C)c1nc2ccc(C(=O)NCCCN3CCN(c4ccccc4)CC3)cc2o1 -19.3%
O=C1CN(C(=O)c2ccc(S(=O)(=O)N3CCCC3)cc2)C(c2ccccc2)c2cc(Cl)ccc2N1 (stereo unspecified) -12.7%
CCOc1ccc(C(=O)Nc2ccc3oc(-c4cccc5ccccc45)nc3c2)cc1 -18.2%
COc1ccc(OC)c(NC(=O)N2CC(C)Oc3ccc(C)cc32)c1 (stereo unspecified) -24.2%
Cc1ccc(C(=O)c2cn(CC(=O)NCc3ccccc3)c3nc(C)ccc3c2=O)cc1 -4.04%
Cc1cc(C)n(CC(=O)Nc2cc(F)ccc2F)c(=O)c1C#N -16.1%
COc1ccc(CCN(C)CCCOc2ccc(S(=O)(=O)c3[nH]c4ccccc4c3C(C)C)cc2)cc1OC -1.6%
COc1ccc(C(=O)Nc2nc(-c3nnn(-c4ccc(F)cc4F)c3C)ns2)cc1 -41.4%
Cc1ccc(O)c(Nc2nc3ccccc3c3nncn23)c1 -10.7%
CCC(Sc1nc2cc(OC)c(OC)cc2c(=O)n1Cc1ccc(OC)cc1)C(=O)NCCOC (stereo unspecified) -6.74%
CC(=O)c1ccc(NC(=O)c2cc(S(=O)(=O)N3CCOCC3)ccc2C)cc1 -36.1%
Cc1cc(N2CCN(c3ccccc3)CC2)n2cnnc2n1 -28.5%
COc1ccc(CCNC(=O)c2ccc(Cn3c(=O)c4ccccc4n(Cc4ccc(F)cc4Cl)c3=O)cc2)cc1OC 7.5%
